According to PubChem BioAssay AID686978 (National Center for Advancing Translational Sciences (NCATS), 2013):
Screen size: about 420,000 compounds; about 64,000 (15%) were called active. The inconclusive results got no clear call from the source; some entries with a clear call stand among them for comparison. The call rests on the fitted dose curve; in most records, active means well fitted inhibition curve with a large enough effect; inconclusive means small, poorly fitted or top-dose-only effect; inactive means flat fitted curve, though single readings scatter. Potencies of inconclusive entries are left out as doubtful fits.

Assay: qHTS for Inhibitors of human tyrosyl-DNA phosphodiesterase 1 (TDP1): qHTS in cells in absence of CPT; further: nearly all actives have a fitted effect of over 55% in size
Conditions: DT40 Tdp1-/- hTDP1 cells, no CPT, ATP luminescence, 48 h; series mostly up to 46.2 µM
Method in brief: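 No-CPT arm: Tdp1-/-;hTDP1 DT40 cells (400/well) plus compounds, incubated ≥48 hr at 37 °C. Readout CellTiter-Glo luminescence.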
Potency means the concentration at half of the fitted maximal effect; tags describe the fitted curve by direction and shape.

SMILES	Potency
C=CCOc1ccc(/C=C/C(=O)OCC(=O)NCC(=O)Nc2c(C)cc(C)cc2C)cc1	inactive
CCCCCC(=O)Nc1ccc2oc(-c3cccnc3)nc2c1	inconclusive [inhibitor, single point]
O=C(CSc1nc2ccccc2o1)N1CCN(C(=O)c2ccco2)CC1	inconclusive [inhibitor, partial curve]
Cc1ccc(S(=O)(=O)Nc2ccc3c(c2)CCC3)cc1	active: 16.4 µM
COc1ccc(CC(=O)Oc2ccc(F)cc2)cc1	inactive
CC(C)N(C(=O)[C@H]1C[C@H](CC(=O)NCCC2=CCCCC2)C(=O)N2CCc3c([nH]c4cc(-c5ccco5)ccc34)[C@]12C)C(C)C	inconclusive [inhibitor, single point]
CCCS(=O)(=O)N1CCN(Cc2ccc(OCc3ccccc3)c(OC)c2)CC1	inconclusive [inhibitor, partial curve]
O=C(CC1N=C2c3ccccc3N=C(SCc3ccc(F)cc3)N2C1=O)NCc1cccs1 (stereo not drawn)	inconclusive [inhibitor, single point]
C=CCn1c(=S)[nH]c2scc(-c3ccc(C)o3)c2c1=O	active: 10.3 µM
COc1ccc(C=O)cc1COc1c(F)c(F)cc(F)c1F	inconclusive [inhibitor, single point]
CSc1ccccc1NC(=O)CN(C)CC(=O)Nc1cccc(Br)c1	active: 23.1 µM
CN(C)C(=O)CCc1ccc2c3c([nH]c2c1)[C@]1(C)[C@@H](C(=O)N2CCOCC2)C[C@H](CC(=O)NC(C)(C)C)C(=O)N1CC3	inactive
CCc1ccc(NC(=O)Cn2ncc3c4ccccc4n(C)c3c2=O)cc1	inconclusive [inhibitor, single point]
CCOC(=O)CCSc1nc(C)c2cc(C)c(C)cc2n1	inconclusive [inhibitor, partial curve]
CC(C)c1nc(N2CCOCC2)c(C#N)c2c1COC(C)(C)C2	inconclusive [inhibitor, partial curve, poor fit]
COc1cc2[nH]c(=S)n(Cc3ccc(C)cc3)c(=O)c2cc1OC	inconclusive [inhibitor, partial curve]
CN(C)CCNC(=O)c1cccc(-c2cnc3c(NC=O)cc(-c4cccc(F)c4)cn23)c1	inconclusive [inhibitor, single point]
Cc1nn(Cc2ccccc2Cl)c(C)c1C(=O)NCC(c1cccs1)N1CCOCC1 (stereo not drawn)	inactive
CC(=O)Nc1ccc(NC(=O)CSc2ccc(-c3ccc(-n4ccnc4)cc3)nn2)cc1	inactive
O=C(CNC(=S)N(Cc1ccccc1F)C1CCCCC1)NCC1CCCO1 (stereo not drawn)	inconclusive [inhibitor, single point]
O=C(O)C1CCC(Cn2c(SCc3cc(=O)n4cc(Br)ccc4n3)nc3ccsc3c2=O)CC1 (stereo not drawn)	inconclusive [inhibitor, single point]
COC(=O)c1nnn(-c2nonc2N)c1CSc1nc2ccccc2s1	inconclusive [inhibitor, single point]

SMILES	Potency
CCOC(=O)c1scc(-c2ccc(C)cc2)c1S(=O)(=O)Nc1cc(Cl)ccc1OC	active: 3.26 µM
CN(CCCN(Cc1ccc(Cl)cc1)c1ccc(Br)cn1)C(=S)NCCCc1cnc[nH]1	inconclusive [inhibitor, single point]
CC(C)Cn1nc(NS(=O)(=O)c2cccc3nonc23)c2cc3ccccc3nc21	inactive
COc1ccccc1NC(=S)N(CCCN(C)C)Cc1cc2cc3c(cc2[nH]c1=O)OCO3	inactive
CCOC(=O)c1c(NC(=O)CC2Sc3ccc(C(F)(F)F)cc3NC2=O)sc(C)c1C (stereo not drawn)	inconclusive [inhibitor, single point]
COc1ccc(-c2nn(-c3ccccc3C)cc2CNCc2cccnc2)cc1F	inconclusive [inhibitor, single point]
O=[N+]([O-])c1cccc(NNS(=O)(=O)c2ccccc2F)c1	inconclusive [inhibitor, single point]
Cc1cccc(C)c1NC(=O)C1(C)CN(S(C)(=O)=O)CC(=O)N1CCc1ccc(O)cc1 (stereo not drawn)	inactive
CC(NCC(=O)Nc1cc(S(=O)(=O)N2CCOCC2)ccc1Cl)c1ccc(Cl)cc1Cl (stereo not drawn)	active: 23.1 µM
CCCCn1cc(S(=O)(=O)c2ccc(OC)cc2)c(=O)c2cc(F)c(F)cc21	inconclusive [inhibitor, single point]
c1ccc(Cn2nnc3c(Nc4ccc5c(c4)OCO5)nc(C4CC4)nc32)cc1	inconclusive [inhibitor, partial curve, poor fit]
CCOC(=O)c1c(S(=O)(=O)NCC(=O)Nc2cccc(CC)c2)c(C)n(C)c1C	inactive
Cc1cccc(C)c1-c1ccc(CN2C(CC(C)C)C(=O)N(Cc3cn(CCO)nn3)CCS2(=O)=O)cc1 (stereo not drawn)	inconclusive [inhibitor, single point]
O=C(Nc1ccc2oc(-c3cccnc3)nc2c1)c1ccc(Br)o1	inconclusive [inhibitor, partial curve]
COC(=O)Cn1c(CN2CCN(c3ccc(OC)cc3)CC2)nc2c1c(=O)[nH]c(=O)n2C	inactive
COc1ccc(NC(=O)c2ccc(OC(F)F)cc2)cc1Cl	inconclusive [inhibitor, single point]
CCN(CC)C(=O)c1sc2c(c1C)c(=O)n(-c1ccccc1)c(=O)n2Cc1cc(=O)n2ccccc2n1	inconclusive [inhibitor, single point]
O=C(Nc1ccc(O)c(-c2nc3ccccc3s2)c1)C1=COCCO1	inconclusive [inhibitor, single point]
Clc1cccc(-c2csc(-c3nc(-c4ccc(Br)s4)cs3)n2)c1	inactive
COc1ccc(C2c3[nH]c4ccccc4c3CCN2Cc2cccn2-c2ncccn2)cc1C (stereo not drawn)	active: 16.4 µM
COC(=O)c1ccc2nc(Nc3nc4ccc(F)cc4s3)sc2c1	inconclusive [inhibitor, single point]
